± gives the standard deviation of the averaged measurements. Restriction of a single-cycle SIVsab GFP reporter by TRIM5α v1-loop variants in CRFK cells. Human variants: read share among cells still uninfected after two challenges over input, higher = gained restriction. Rhesus variants: share among infected cells over input, higher = lost restriction. Reporter dose not given per row. No active / inactive call per row; the paper calls a change when both replicates lie above its controls (mean + 2 SD of stop or wild-type variants, or the top frameshift score). Residues outside the varied loop are taken from Swiss-Prot. The paper reads the human single-substitution scores as noise; they and the rhesus combinations repeat poorly (rank correlation 0.3 to 0.4), indel scores repeat only for the top variants, rhesus substitutions well (0.9).

This data set relates to SIVsab (simian immunodeficiency virus of sabaeus monkeys), single-cycle GFP reporter, in CRFK cells. Description: enrichment among uninfected cells over input (fold); higher = stronger restriction. Particulars: library: insertions and deletions. How it is done:
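Pools of CRFK cells expressing variants of the TRIM5α v1 loop were challenged with the single-cycle reporter, sorted by GFP and sequenced; mean of two replicates.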
Consider “MASGILVNVKEEVTCPICLELLTQPLSLDCGHSFCQACLTANHKKSMLDKGESSCPVCRISYQPENIRPNRHVANIVEKLREVKLSPEGQKVDHCARHGEKLLLFCQEDGKVICWLCERSQEHRGHHTFLTEEVAREYQVKLQAALEMLRQKQQEAEELEADIREEKASWKTQIQYDKTNVLADFEQLRDILDWEESNELQNLEKEEEDILKSLTNSETEMVQQTQSLRELISDLEHRLQGSVMELLQGVDGVIKRTENVTLKKPETFPKNQRRVFRAPDLKGMLEVFRELTDVRRYWVDVTVAPNNISCAVISEDKRQVSSPARGTRYQTFVNFNYCTGILGSQSITSGKHYWEVDVSKKTAWILGVCAGFQPDAMCNIEKNENYQPKYGYWVIGLEEGVKCSAFQDSSFHTPSVPFIVPLSVIICPDRVGVFLDYEACTVSFFNITNHGFLIYKFSHCSFSQPVFPYLNPRKCGVPMTLCSPSS [human TRIM5α, 7-codon deletion at 324]”, for which the enrichment was 0.854 ± 0.25.

On to “MASGILVNVKEEVTCPICLELLTQPLSLDCGHSFCQACLTANHKKSMLDKGESSCPVCRISYQPENIRPNRHVANIVEKLREVKLSPEGQKVDHCARHGEKLLLFCQEDGKVICWLCERSQEHRGHHTFLTEEVAREYQVKLQAALEMLRQKQQEAEELEADIREEKASWKTQIQYDKTNVLADFEQLRDILDWEESNELQNLEKEEEDILKSLTNSETEMVQQTQSLRELISDLEHRLQGSVMELLQGVDGVIKRTENVTLKKPETFPKNQRRVFRAPDLKGMLEVFRELTDVRRYWVDVTVAPNNISCAVISEDKRQVSSPGARGTRYQTFVNFNYCTGILGSQSITSGKHYWEVDVSKKTAWILGVCAGFQPDAMCNIEKNENYQPKYGYWVIGLEEGVKCSAFQDSSFHTPSVPFIVPLSVIICPDRVGVFLDYEACTVSFFNITNHGFLIYKFSHCSFSQPVFPYLNPRKCGVPMTLCSPSS [human TRIM5α, 6-codon deletion at 324]”, for which the enrichment worked out at 1.23 ± 0.25.

As to “MASGILVNVKEEVTCPICLELLTQPLSLDCGHSFCQACLTANHKKSMLDKGESSCPVCRISYQPENIRPNRHVANIVEKLREVKLSPEGQKVDHCARHGEKLLLFCQEDGKVICWLCERSQEHRGHHTFLTEEVAREYQVKLQAALEMLRQKQQEAEELEADIREEKASWKTQIQYDKTNVLADFEQLRDILDWEESNELQNLEKEEEDILKSLTNSETEMVQQTQSLRELISDLEHRLQGSVMELLQGVDGVIKRTENVTLKKPETFPKNQRRVFRAPDLKGMLEVFRELTDVRRYWVDVTVAPNNISCAVISEDKRQVSSPGTRYQTFVNFNYCTGILGSQSITSGKHYWEVDVSKKTAWILGVCAGFQPDAMCNIEKNENYQPKYGYWVIGLEEGVKCSAFQDSSFHTPSVPFIVPLSVIICPDRVGVFLDYEACTVSFFNITNHGFLIYKFSHCSFSQPVFPYLNPRKCGVPMTLCSPSS [human TRIM5α, 9-codon deletion at 324]”, the enrichment was 0.463 ± 0.12.

For the sequence “MASGILVNVKEEVTCPICLELLTQPLSLDCGHSFCQACLTANHKKSMLDKGESSCPVCRISYQPENIRPNRHVANIVEKLREVKLSPEGQKVDHCARHGEKLLLFCQEDGKVICWLCERSQEHRGHHTFLTEEVAREYQVKLQAALEMLRQKQQEAEELEADIREEKASWKTQIQYDKTNVLADFEQLRDILDWEESNELQNLEKEEEDILKSLTNSETEMVQQTQSLRELISDLEHRLQGSVMELLQGVDGVIKRTENVTLKKPETFPKNQRRVFRAPDLKGMLEVFRELTDVRRYWVDVTVAPNNISCAVISEDKRQVSSPIIYGARGTRYQTFVNFNYCTGILGSQSITSGKHYWEVDVSKKTAWILGVCAGFQPDAMCNIEKNENYQPKYGYWVIGLEEGVKCSAFQDSSFHTPSVPFIVPLSVIICPDRVGVFLDYEACTVSFFNITNHGFLIYKFSHCSFSQPVFPYLNPRKCGVPMTLCSPSS [human TRIM5α, 3-codon deletion at 324]”, the enrichment is 0.122 ± 0.037.

In turn, “MASGILVNVKEEVTCPICLELLTQPLSLDCGHSFCQACLTANHKKSMLDKGESSCPVCRISYQPENIRPNRHVANIVEKLREVKLSPEGQKVDHCARHGEKLLLFCQEDGKVICWLCERSQEHRGHHTFLTEEVAREYQVKLQAALEMLRQKQQEAEELEADIREEKASWKTQIQYDKTNVLADFEQLRDILDWEESNELQNLEKEEEDILKSLTNSETEMVQQTQSLRELISDLEHRLQGSVMELLQGVDGVIKRTENVTLKKPETFPKNQRRVFRAPDLKGMLEVFRELTDVRRYWVDVTVAPNNISCAVISEDKRQVSSPIYGARGTRYQTFVNFNYCTGILGSQSITSGKHYWEVDVSKKTAWILGVCAGFQPDAMCNIEKNENYQPKYGYWVIGLEEGVKCSAFQDSSFHTPSVPFIVPLSVIICPDRVGVFLDYEACTVSFFNITNHGFLIYKFSHCSFSQPVFPYLNPRKCGVPMTLCSPSS [human TRIM5α, 4-codon deletion at 324]” returned an enrichment of 0.475 ± 0.17.

“MASGILVNVKEEVTCPICLELLTQPLSLDCGHSFCQACLTANHKKSMLDKGESSCPVCRISYQPENIRPNRHVANIVEKLREVKLSPEGQKVDHCARHGEKLLLFCQEDGKVICWLCERSQEHRGHHTFLTEEVAREYQVKLQAALEMLRQKQQEAEELEADIREEKASWKTQIQYDKTNVLADFEQLRDILDWEESNELQNLEKEEEDILKSLTNSETEMVQQTQSLRELISDLEHRLQGSVMELLQGVDGVIKRTENVTLKKPETFPKNQRRVFRAPDLKGMLEVFRELTDVRRYWVDVTVAPNNISCAVISEDKRQVSSPKARGTRYQTFVNFNYCTGILGSQSITSGKHYWEVDVSKKTAWILGVCAGFQPDAMCNIEKNENYQPKYGYWVIGLEEGVKCSAFQDSSFHTPSVPFIVPLSVIICPDRVGVFLDYEACTVSFFNITNHGFLIYKFSHCSFSQPVFPYLNPRKCGVPMTLCSPSS [human TRIM5α, 6-codon deletion at 325]”: the enrichment stood at 0.983 ± 0.048.

In turn, “MASGILVNVKEEVTCPICLELLTQPLSLDCGHSFCQACLTANHKKSMLDKGESSCPVCRISYQPENIRPNRHVANIVEKLREVKLSPEGQKVDHCARHGEKLLLFCQEDGKVICWLCERSQEHRGHHTFLTEEVAREYQVKLQAALEMLRQKQQEAEELEADIREEKASWKTQIQYDKTNVLADFEQLRDILDWEESNELQNLEKEEEDILKSLTNSETEMVQQTQSLRELISDLEHRLQGSVMELLQGVDGVIKRTENVTLKKPETFPKNQRRVFRAPDLKGMLEVFRELTDVRRYWVDVTVAPNNISCAVISEDKRQVSSPKGARGTRYQTFVNFNYCTGILGSQSITSGKHYWEVDVSKKTAWILGVCAGFQPDAMCNIEKNENYQPKYGYWVIGLEEGVKCSAFQDSSFHTPSVPFIVPLSVIICPDRVGVFLDYEACTVSFFNITNHGFLIYKFSHCSFSQPVFPYLNPRKCGVPMTLCSPSS [human TRIM5α, 5-codon deletion at 325]” showed an enrichment of 0.546 ± 0.25.

“MASGILVNVKEEVTCPICLELLTQPLSLDCGHSFCQACLTANHKKSMLDKGESSCPVCRISYQPENIRPNRHVANIVEKLREVKLSPEGQKVDHCARHGEKLLLFCQEDGKVICWLCERSQEHRGHHTFLTEEVAREYQVKLQAALEMLRQKQQEAEELEADIREEKASWKTQIQYDKTNVLADFEQLRDILDWEESNELQNLEKEEEDILKSLTNSETEMVQQTQSLRELISDLEHRLQGSVMELLQGVDGVIKRTENVTLKKPETFPKNQRRVFRAPDLKGMLEVFRELTDVRRYWVDVTVAPNNISCAVISEDKRQVSSPKGTRYQTFVNFNYCTGILGSQSITSGKHYWEVDVSKKTAWILGVCAGFQPDAMCNIEKNENYQPKYGYWVIGLEEGVKCSAFQDSSFHTPSVPFIVPLSVIICPDRVGVFLDYEACTVSFFNITNHGFLIYKFSHCSFSQPVFPYLNPRKCGVPMTLCSPSS [human TRIM5α, 8-codon deletion at 325]” had an enrichment of 0.649 ± 0.44.

Source of the values: the supplement of paper PMC12230231.
